# According to the supplement of paper PMC8047034:
# Structures can show the parent of a compound that is named as a salt. Some of the results follow. Repeats are few or missing, and single values can be far off.
# Tests used:
# OVCAR4 = assay: log2 surviving fraction (library drug vs vehicle, or drug + carboplatin vs carboplatin alone; relative to plate median); ovarian cancer lines: OVCAR4 is platinum-sensitive and Ov4Carbo platinum-resistant; higher = more cell survival; settings: library drug concentration 10 µM, 7 days
# Ov4Carbo = assay: as above; settings: library drug concentration 10 µM, 7 days
SMILES,log2 surviving fraction (OVCAR4; carboplatin co-treatment 0 µM),log2 surviving fraction (OVCAR4; carboplatin co-treatment 5 µM),log2 surviving fraction (Ov4Carbo; carboplatin co-treatment 0 µM),log2 surviving fraction (Ov4Carbo; carboplatin co-treatment 5 µM)
CCn1cc(C(=O)O)c(=O)c2cc(F)c(N3CCNCC3)nc21 [Enoxacin (Penetrex)],0.859,0.507,-0.27,-0.121
C[C@@H]1C[C@H]2[C@@H]3CCC4=CC(=O)C=C[C@]4(C)[C@@]3(F)[C@@H](O)C[C@]2(C)[C@@]1(O)C(=O)CO [Dexamethasone],1.01,0.382,-8.84,-1.09
CC1(C)S[C@@H]2[C@H](NC(=O)[C@H](NC(=O)N3CCN(S(C)(=O)=O)C3=O)c3ccccc3)C(=O)N2[C@H]1C(=O)O [Mezlocillin Sodium],0.00397,-0.125,0.798,-0.585
COC(=O)C1=C(C)NC(C)=C(C(=O)OC2CCCN(Cc3ccccc3)C2)C1c1cccc([N+](=O)[O-])c1 (configuration not stated) [Benidipine hydrochloride],-1.6,-0.115,-1.4,-1.82
CC[N+](CC)(CC)CCOc1cccc(OCC[N+](CC)(CC)CC)c1OCC[N+](CC)(CC)CC [Gallamine triethiodide (Flaxedil)],0.14,0.423,0.344,-0.134
COc1ccc(CN2CCN(C(c3ccc(F)cc3)c3ccc(F)cc3)CC2)c(OC)c1OC [Lomerizine HCl],0.0264,0.38,0.177,0.552
CC[C@H](C)C(=O)O[C@H]1C[C@@H](C)C=C2C=C[C@H](C)[C@H](CC[C@@H]3C[C@@H](O)CC(=O)O3)[C@H]21 [Lovastatin (Mevacor)],-1.89,-3.03,-2.27,-2.07
CC(C)Cc1ccc(C(C)C(=O)O)cc1 (configuration not stated) [Ibuprofen (Advil)],-0.667,0.778,0.733,0.286
